Measured values reported in patent US11351268B2, “FGF21 C-terminal peptide optimization” (INDIANA UNIVERSITY RESEARCH AND TECHNOLOGY CORPORATION, priority 2016, dated 2022).
Part of at least one peptide drawing is inferred or uncertain, most often the ends. Non-standard residues stand in square brackets, D forms with d. Residues, ends and D or L forms follow the SMILES beside them.

Each compound was assayed against T1, Klotho β (KLB) (Homo sapiens, UniProt Q86Z14). Conditions: Table 3, D-amino acid scan; C25 = 100.
T1 construct: expressed in transfected cells; host or cells: HEK 293T (ATCC), pooled Zeocin-selected cells stably expressing hKLB from pcDNA3.1(+)
T1 sequence (Q86Z14 1-1044): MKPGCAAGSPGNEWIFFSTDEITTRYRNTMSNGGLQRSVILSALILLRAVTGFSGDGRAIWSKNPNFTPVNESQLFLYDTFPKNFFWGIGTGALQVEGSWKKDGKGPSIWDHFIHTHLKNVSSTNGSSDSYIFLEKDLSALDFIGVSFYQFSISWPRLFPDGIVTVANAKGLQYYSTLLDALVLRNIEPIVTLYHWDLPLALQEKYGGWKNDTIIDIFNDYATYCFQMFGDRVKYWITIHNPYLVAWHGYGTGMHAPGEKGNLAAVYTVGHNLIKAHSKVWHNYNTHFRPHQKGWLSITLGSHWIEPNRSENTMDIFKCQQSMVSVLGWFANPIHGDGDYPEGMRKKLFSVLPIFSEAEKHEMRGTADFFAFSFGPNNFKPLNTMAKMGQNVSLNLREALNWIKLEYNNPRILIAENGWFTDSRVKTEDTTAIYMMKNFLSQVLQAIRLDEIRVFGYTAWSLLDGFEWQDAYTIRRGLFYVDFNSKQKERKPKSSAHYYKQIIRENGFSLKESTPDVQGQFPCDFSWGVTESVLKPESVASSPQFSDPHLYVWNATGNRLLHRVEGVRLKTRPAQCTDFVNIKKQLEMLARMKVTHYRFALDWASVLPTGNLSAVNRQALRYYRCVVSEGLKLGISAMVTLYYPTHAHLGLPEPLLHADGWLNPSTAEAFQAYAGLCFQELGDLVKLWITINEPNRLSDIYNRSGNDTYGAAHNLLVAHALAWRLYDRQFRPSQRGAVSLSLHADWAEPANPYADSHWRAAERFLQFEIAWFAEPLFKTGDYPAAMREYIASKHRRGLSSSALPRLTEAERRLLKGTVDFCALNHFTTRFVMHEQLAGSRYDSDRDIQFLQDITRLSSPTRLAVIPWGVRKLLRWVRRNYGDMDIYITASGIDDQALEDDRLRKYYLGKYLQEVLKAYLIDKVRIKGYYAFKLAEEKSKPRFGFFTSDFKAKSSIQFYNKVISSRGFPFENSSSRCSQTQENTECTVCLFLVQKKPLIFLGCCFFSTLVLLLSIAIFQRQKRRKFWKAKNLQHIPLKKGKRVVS
Format: cell-based
Method: Cells were cultured in 10% Fetal Bovine Serum containing DMEM High glucose GLUTAMAX® at 37 C, 95% humidity, 5% CO2. For generating the cell line with stable expression, human KLB gene was synthesized by Genscript and subcloned into pcDNA3.1(+) with ZEOCIN® resistance vector (INVITROGEN®) by NheI and NotI restriction enzyme sites. HEK 293T cells were obtained from ATCC and were transiently transfected at 80% confluency using Lipofectamine 3000 (Invitrogen). Selection for KLB-expressing cells was initiated 48 hours post-transfection in the growth media containing 100 μg/ml of ZEOCIN® (Gibco) and continued for 4 weeks with fresh media added every third day. Human KLB expression in pooled cells was confirmed by Western blot and a functional FGF21 MAPK phosphorylation assay.
293 HEK cells expressing hKLB were plated to 90% confluency in 96 well plates coated with poly-D-Lysine. Cells were serum starved for three hours in 0.1% BSA containing media prior to stimulation with protein and/or an antagonist peptide for ten minutes at 37° C. The cell lysate was used for the detection of phospho-Erk1/2 levels by AlphaSureFire kit using the prescribed protocol. The degree of biochemical activation was recorded and analyzed using Origin software by logistic curve fitting. Tests at each concentration were done in triplicates, and the standard deviation is as shown in the graphs. The calculation of maximal activities was done keeping the FGF21 157-181 or FGF19 169-194 peptide activity as standard. The difference between the Erk1/2 phosphorylation signal for the highest (10 μM) and the lowest (0 μM) tested dose for native peptide was considered as 100% and accordingly all the other values were assigned.

`CSCC[C@H](NC(=O)[C@H](CO)NC(=O)[C@H](CC(C)C)NC(=O)[C@@H]1CCCN1C(=O)[C@H](CC(=O)O)NC(=O)[C@H](CO)NC(=O)[C@H](CO)NC(=O)CNC(=O)[C@@H](NC(=O)[C@H](CC(=O)O)NC(=O)[C@@H]1CCCN1C(=O)[C@H]1CCCN1)C(C)C)C(=O)N[C@H](C(=O)NCC(=O)N1CCC[C@H]1C(=O)N[C@@H](CO)C(=O)N[C@@H](CCC(N)=O)C(=O)NCC(=O)N[C@@H](CCCNC(=N)N)C(=O)N[C@@H](CO)C(=O)N1CCC[C@H]1C(=O)N[C@@H](CO)C(=O)N[C@@H](Cc1ccc(O)cc1)C(=O)N[C@@H](C)C(=O)N[C@@H](CO)C(N)=O)C(C)C` [d1, pPDVG SSDPL SMVGP SQGRS PSYAS] (H-[dP]PDVGSSDPLSMVGPSQGRSPSYAS-NH2; N-terminus and C-terminus assumed) was tested. Which “% Activity vs C25” value did it give?
Its value is 54.16 ± 24.05%.

For `CSCC[C@H](NC(=O)[C@H](CO)NC(=O)[C@H](CC(C)C)NC(=O)[C@@H]1CCCN1C(=O)[C@H](CC(=O)O)NC(=O)[C@H](CO)NC(=O)[C@H](CO)NC(=O)CNC(=O)[C@@H](NC(=O)[C@H](CC(=O)O)NC(=O)[C@H]1CCCN1C(=O)[C@@H]1CCCN1)C(C)C)C(=O)N[C@H](C(=O)NCC(=O)N1CCC[C@H]1C(=O)N[C@@H](CO)C(=O)N[C@@H](CCC(N)=O)C(=O)NCC(=O)N[C@@H](CCCNC(=N)N)C(=O)N[C@@H](CO)C(=O)N1CCC[C@H]1C(=O)N[C@@H](CO)C(=O)N[C@@H](Cc1ccc(O)cc1)C(=O)N[C@@H](C)C(=O)N[C@@H](CO)C(N)=O)C(C)C` [d2, PpDVG SSDPL SMVGP SQGRS PSYAS] (H-P[dP]DVGSSDPLSMVGPSQGRSPSYAS-NH2; N-terminus and C-terminus assumed), which “% Activity vs C25” value is on record?
Its value is 7.61 ± 1.78%.

For `CSCC[C@H](NC(=O)[C@H](CO)NC(=O)[C@H](CC(C)C)NC(=O)[C@@H]1CCCN1C(=O)[C@H](CC(=O)O)NC(=O)[C@H](CO)NC(=O)[C@H](CO)NC(=O)CNC(=O)[C@@H](NC(=O)[C@@H](CC(=O)O)NC(=O)[C@@H]1CCCN1C(=O)[C@@H]1CCCN1)C(C)C)C(=O)N[C@H](C(=O)NCC(=O)N1CCC[C@H]1C(=O)N[C@@H](CO)C(=O)N[C@@H](CCC(N)=O)C(=O)NCC(=O)N[C@@H](CCCNC(=N)N)C(=O)N[C@@H](CO)C(=O)N1CCC[C@H]1C(=O)N[C@@H](CO)C(=O)N[C@@H](Cc1ccc(O)cc1)C(=O)N[C@@H](C)C(=O)N[C@@H](CO)C(N)=O)C(C)C` [d3, PPdVG SSDPL SMVGP SQGRS PSYAS] (H-PP[dD]VGSSDPLSMVGPSQGRSPSYAS-NH2; N-terminus and C-terminus assumed), which “% Activity vs C25” value is on record?
The value was 15.63 ± 20.51%.

How did the “% Activity vs C25” value turn out when `CSCC[C@H](NC(=O)[C@H](CO)NC(=O)[C@H](CC(C)C)NC(=O)[C@@H]1CCCN1C(=O)[C@H](CC(=O)O)NC(=O)[C@H](CO)NC(=O)[C@H](CO)NC(=O)CNC(=O)[C@H](NC(=O)[C@H](CC(=O)O)NC(=O)[C@@H]1CCCN1C(=O)[C@@H]1CCCN1)C(C)C)C(=O)N[C@H](C(=O)NCC(=O)N1CCC[C@H]1C(=O)N[C@@H](CO)C(=O)N[C@@H](CCC(N)=O)C(=O)NCC(=O)N[C@@H](CCCNC(=N)N)C(=O)N[C@@H](CO)C(=O)N1CCC[C@H]1C(=O)N[C@@H](CO)C(=O)N[C@@H](Cc1ccc(O)cc1)C(=O)N[C@@H](C)C(=O)N[C@@H](CO)C(N)=O)C(C)C` [d4, PPDvG SSDPL SMVGP SQGRS PSYAS] (H-PPD[dV]GSSDPLSMVGPSQGRSPSYAS-NH2) was run?
The value was “Ambiguous”.

With `CSCC[C@H](NC(=O)[C@H](CO)NC(=O)[C@H](CC(C)C)NC(=O)[C@@H]1CCCN1C(=O)[C@H](CC(=O)O)NC(=O)[C@H](CO)NC(=O)[C@@H](CO)NC(=O)CNC(=O)[C@@H](NC(=O)[C@H](CC(=O)O)NC(=O)[C@@H]1CCCN1C(=O)[C@@H]1CCCN1)C(C)C)C(=O)N[C@H](C(=O)NCC(=O)N1CCC[C@H]1C(=O)N[C@@H](CO)C(=O)N[C@@H](CCC(N)=O)C(=O)NCC(=O)N[C@@H](CCCNC(=N)N)C(=O)N[C@@H](CO)C(=O)N1CCC[C@H]1C(=O)N[C@@H](CO)C(=O)N[C@@H](Cc1ccc(O)cc1)C(=O)N[C@@H](C)C(=O)N[C@@H](CO)C(N)=O)C(C)C` [d6, PPDVG sSDPL SMVGP SQGRS PSYAS] (H-PPDVG[dS]SDPLSMVGPSQGRSPSYAS-NH2; N-terminus and C-terminus assumed) as the compound, how does the “% Activity vs C25” value read?
Its value is 32.49 ± 42.20%.

With `CSCC[C@H](NC(=O)[C@H](CO)NC(=O)[C@H](CC(C)C)NC(=O)[C@@H]1CCCN1C(=O)[C@H](CC(=O)O)NC(=O)[C@@H](CO)NC(=O)[C@H](CO)NC(=O)CNC(=O)[C@@H](NC(=O)[C@H](CC(=O)O)NC(=O)[C@@H]1CCCN1C(=O)[C@@H]1CCCN1)C(C)C)C(=O)N[C@H](C(=O)NCC(=O)N1CCC[C@H]1C(=O)N[C@@H](CO)C(=O)N[C@@H](CCC(N)=O)C(=O)NCC(=O)N[C@@H](CCCNC(=N)N)C(=O)N[C@@H](CO)C(=O)N1CCC[C@H]1C(=O)N[C@@H](CO)C(=O)N[C@@H](Cc1ccc(O)cc1)C(=O)N[C@@H](C)C(=O)N[C@@H](CO)C(N)=O)C(C)C` [d7, PPDVG SsDPL SMVGP SQGRS PSYAS] (H-PPDVGS[dS]DPLSMVGPSQGRSPSYAS-NH2) as the compound, how does the “% Activity vs C25” value read?
The value was “Ambiguous”.

Which “% Activity vs C25” value does the source give for `CSCC[C@H](NC(=O)[C@H](CO)NC(=O)[C@H](CC(C)C)NC(=O)[C@@H]1CCCN1C(=O)[C@@H](CC(=O)O)NC(=O)[C@H](CO)NC(=O)[C@H](CO)NC(=O)CNC(=O)[C@@H](NC(=O)[C@H](CC(=O)O)NC(=O)[C@@H]1CCCN1C(=O)[C@@H]1CCCN1)C(C)C)C(=O)N[C@H](C(=O)NCC(=O)N1CCC[C@H]1C(=O)N[C@@H](CO)C(=O)N[C@@H](CCC(N)=O)C(=O)NCC(=O)N[C@@H](CCCNC(=N)N)C(=O)N[C@@H](CO)C(=O)N1CCC[C@H]1C(=O)N[C@@H](CO)C(=O)N[C@@H](Cc1ccc(O)cc1)C(=O)N[C@@H](C)C(=O)N[C@@H](CO)C(N)=O)C(C)C` [d8, PPDVG SSdPL SMVGP SQGRS PSYAS] (H-PPDVGSS[dD]PLSMVGPSQGRSPSYAS-NH2) here?
Its value is “Ambiguous”.

For `CSCC[C@H](NC(=O)[C@H](CO)NC(=O)[C@H](CC(C)C)NC(=O)[C@H]1CCCN1C(=O)[C@H](CC(=O)O)NC(=O)[C@H](CO)NC(=O)[C@H](CO)NC(=O)CNC(=O)[C@@H](NC(=O)[C@H](CC(=O)O)NC(=O)[C@@H]1CCCN1C(=O)[C@@H]1CCCN1)C(C)C)C(=O)N[C@H](C(=O)NCC(=O)N1CCC[C@H]1C(=O)N[C@@H](CO)C(=O)N[C@@H](CCC(N)=O)C(=O)NCC(=O)N[C@@H](CCCNC(=N)N)C(=O)N[C@@H](CO)C(=O)N1CCC[C@H]1C(=O)N[C@@H](CO)C(=O)N[C@@H](Cc1ccc(O)cc1)C(=O)N[C@@H](C)C(=O)N[C@@H](CO)C(N)=O)C(C)C` [d9, PPDVG SSDpL SMVGP SQGRS PSYAS] (H-PPDVGSSD[dP]LSMVGPSQGRSPSYAS-NH2), which “% Activity vs C25” value is on record?
The value was “Ambiguous”.

With `CSCC[C@H](NC(=O)[C@H](CO)NC(=O)[C@@H](CC(C)C)NC(=O)[C@@H]1CCCN1C(=O)[C@H](CC(=O)O)NC(=O)[C@H](CO)NC(=O)[C@H](CO)NC(=O)CNC(=O)[C@@H](NC(=O)[C@H](CC(=O)O)NC(=O)[C@@H]1CCCN1C(=O)[C@@H]1CCCN1)C(C)C)C(=O)N[C@H](C(=O)NCC(=O)N1CCC[C@H]1C(=O)N[C@@H](CO)C(=O)N[C@@H](CCC(N)=O)C(=O)NCC(=O)N[C@@H](CCCNC(=N)N)C(=O)N[C@@H](CO)C(=O)N1CCC[C@H]1C(=O)N[C@@H](CO)C(=O)N[C@@H](Cc1ccc(O)cc1)C(=O)N[C@@H](C)C(=O)N[C@@H](CO)C(N)=O)C(C)C` [d10, PPDVG SSDPl SMVGP SQGRS PSYAS] (H-PPDVGSSDP[dL]SMVGPSQGRSPSYAS-NH2) as the compound, how does the “% Activity vs C25” value read?
The value was “Ambiguous”.
